The structures appear in SMILES notation. The list shows a part of the results.

For one assay, the system named is HSkMC. The experiment in a line: cytotoxicity call (relative viability < 0.9). To be noted: 10 µM.
A further assay has as its system HepG2. Put plainly: cytotoxicity call (relative viability < 0.9). To be noted: 10 µM.
A further assay deals with S. aureus RN4220. The experiment in a line: growth inhibition call (relative growth <= 0.2). To be noted: 50 µM.

With `Cc1noc(C)c1NC(=O)N(C)C[C@H]1Oc2c(NS(=O)(=O)c3cn(C)cn3)cccc2C(=O)N([C@@H](C)CO)C[C@@H]1C`, the cytotoxicity call in the assay with HSkMC and in the assay on HepG2 was “inactive” each time. The growth inhibition call with S. aureus RN4220 was “inactive”.
Turning to `C[C@@H]1CN([C@@H](C)CO)S(=O)(=O)c2ccc(C3=CCCC3)cc2O[C@@H]1CN(C)S(=O)(=O)c1ccc(F)cc1`, the cytotoxicity call in the assay with HSkMC and in the assay on HepG2 was “inactive” throughout. Also, the growth inhibition call with S. aureus RN4220 was “inactive”.
As to `COc1cccc(S(=O)(=O)N(C)C[C@@H]2Oc3ncc(C#CC(C)C)cc3C(=O)N([C@H](C)CO)C[C@H]2C)c1`, the cytotoxicity call with HSkMC and with HepG2 was “inactive” in each case. Besides, in the assay on S. aureus RN4220, the growth inhibition call is “inactive”.
In the case of `CN(C)Cc1cn(CC[C@H]2CC[C@@H](NC(=O)Cc3cccnc3)[C@H](CO)O2)nn1`, the cytotoxicity call in the assay with HSkMC and in the assay with HepG2 was “inactive” in each case. The growth inhibition call with S. aureus RN4220 is “inactive”.
Consider `C[C@H]1CCCCO[C@H](CN(C)S(=O)(=O)c2cccs2)[C@@H](C)CN([C@@H](C)CO)C(=O)c2cc(NC(=O)CCC(F)(F)F)ccc2O1`, for which the cytotoxicity call with HSkMC and in the assay with HepG2 was “inactive” in each case. In the assay with S. aureus RN4220, the growth inhibition call was “inactive”.
For the compound `C[C@H]1CN([C@@H](C)CO)S(=O)(=O)c2ccc(C#CC3CCCCC3)cc2O[C@H]1CN(C)C(=O)Cc1ccncc1`, the cytotoxicity call in the assay with HSkMC and in the assay with HepG2 was “inactive” each time. Also, the growth inhibition call in the assay with S. aureus RN4220 was “inactive”.
For `CO[C@H]1CN(C)C(=O)c2ccc(NC(C)=O)cc2OC[C@H](C)N(S(=O)(=O)c2cn(C)cn2)C[C@@H]1C`, the cytotoxicity call in the assay on HSkMC and with HepG2 was “inactive” throughout. In the assay with S. aureus RN4220, the growth inhibition call was “inactive”.
On to `C[C@@H]1CN([C@@H](C)CO)C(=O)Cc2cc(NC(=O)c3ccncc3)ccc2O[C@H]1CN(C)S(=O)(=O)c1ccccc1`, for which the cytotoxicity call in the assay on HSkMC and in the assay on HepG2 was “inactive” in each case. The growth inhibition call in the assay with S. aureus RN4220 was “inactive”.
As for `CCOc1ccc(CO[C@@H]2O[C@H](CO)[C@@H](O)[C@H](O)[C@H]2NC(C)=O)cc1OC`, in the assay on HSkMC, the cytotoxicity call is “inactive”. Also, the cytotoxicity call in the assay on HepG2 was “active”. Further, in the assay with S. aureus RN4220, the growth inhibition call was “inactive”.
Take `CC(C)CC#Cc1ccc2c(c1)O[C@@H](CN(C)S(=O)(=O)c1ccc(F)cc1)[C@H](C)CN([C@@H](C)CO)S2(=O)=O`: the cytotoxicity call with HSkMC and with HepG2 was “inactive” each time. In addition, the growth inhibition call in the assay with S. aureus RN4220 is “inactive”.
On to `COc1ccc(CN(C)C[C@H]2Oc3c(NC(=O)c4cnccn4)cccc3C(=O)N([C@H](C)CO)C[C@@H]2C)cc1`, for which the cytotoxicity call in the assay with HSkMC and in the assay on HepG2 was “inactive” throughout. In the assay with S. aureus RN4220, the growth inhibition call was “inactive”.
Turning to `Cc1ccc(NC(=O)C[C@H]2NCCNC2=O)cc1`, the cytotoxicity call with HSkMC and in the assay with HepG2 was “inactive” in each case. Moreover, the growth inhibition call in the assay on S. aureus RN4220 is “inactive”.
Regarding `C[C@H]1CN([C@@H](C)CO)C(=O)c2cccc(NC(=O)c3ccc(-c4nccs4)cc3)c2O[C@H]1CN(C)Cc1ccc(-c2ccccc2)cc1`, the cytotoxicity call with HSkMC and with HepG2 was “inactive” in each case. The growth inhibition call in the assay on S. aureus RN4220 is “inactive”.
In the case of `C[C@H]1CCCCO[C@H](CN(C)C(=O)Nc2cccc3ccccc23)[C@@H](C)CN([C@@H](C)CO)C(=O)c2cc(NS(=O)(=O)c3ccc(F)cc3)ccc2O1`, the cytotoxicity call in the assay on HSkMC and in the assay on HepG2 was “active” throughout. Also, in the assay on S. aureus RN4220, the growth inhibition call was “inactive”.
With `CC(C)c1cn(CC[C@H]2CC[C@H](N)[C@@H](CO)O2)nn1`, the cytotoxicity call with HSkMC and in the assay with HepG2 was “inactive” in each case. In the assay on S. aureus RN4220, the growth inhibition call was “inactive”.
For `Nc1ccc(S(=O)(=O)c2ccc(N)cc2)cc1`, the cytotoxicity call with HSkMC and in the assay with HepG2 was “inactive” throughout. In addition, in the assay on S. aureus RN4220, the growth inhibition call was “inactive”.
On to `CC[C@@H]1CN(C(=O)c2ccccn2)N1`, for which the cytotoxicity call in the assay on HSkMC and in the assay on HepG2 was “inactive” throughout. Besides, the growth inhibition call with S. aureus RN4220 was “inactive”.
Turning to `C[C@@H]1CN([C@H](C)CO)C(=O)c2cc(NS(=O)(=O)c3ccc(F)cc3)ccc2O[C@@H](C)CCCCO[C@@H]1CN(C)CC1CCCCC1`, the cytotoxicity call in the assay on HSkMC and with HepG2 was “inactive” throughout. The growth inhibition call in the assay with S. aureus RN4220 is “inactive”.
Consider `CCCNC(=O)Nc1ccc2c(c1)C(=O)N(C)C[C@H](OC)[C@H](C)CN(Cc1ccc(-c3ccccn3)cc1)[C@@H](C)CO2`, for which the cytotoxicity call in the assay with HSkMC and in the assay on HepG2 was “inactive” throughout. In addition, in the assay with S. aureus RN4220, the growth inhibition call is “inactive”.
With `CO[C@@H]1CN(C)C(=O)c2cc(NC(=O)C3CCOCC3)ccc2OC[C@@H](C)N(Cc2cccnc2)C[C@H]1C`, the cytotoxicity call in the assay with HSkMC and in the assay on HepG2 was “inactive” in each case. Also, the growth inhibition call in the assay with S. aureus RN4220 was “inactive”.
As to `Cc1csc2sc(COC(=O)Nc3ccccc3)c(C)c12`, the cytotoxicity call in the assay with HSkMC and in the assay on HepG2 was “inactive” in each case. Further, the growth inhibition call in the assay on S. aureus RN4220 was “inactive”.
In the case of `CC1(C)CC(=O)c2c(C(F)(F)F)nn(-c3ccc(C(N)=O)c(O[C@H]4CC[C@H](N)CC4)c3)c2C1`, the cytotoxicity call in the assay on HSkMC and in the assay with HepG2 was “inactive” in each case. Further, the growth inhibition call in the assay on S. aureus RN4220 was “inactive”.
As for `O=S(=O)([O-])c1cc(O)c2c(N=Nc3ccc(Nc4ccccc4)c4c(S(=O)(=O)[O-])cccc34)cc(S(=O)(=O)[O-])cc2c1.[Na+].[Na+].[Na+]`, the cytotoxicity call in the assay on HSkMC (human skeletal muscle cells) and with HepG2 was “inactive” in each case. Further, in the assay on S. aureus RN4220, the growth inhibition call is “inactive”.
Regarding `C[C@@H]1CN([C@@H](C)CO)C(=O)c2cc(NC(=O)c3ccccc3)ccc2O[C@@H](C)CCCCO[C@@H]1CN(C)Cc1ccc(C(=O)O)cc1`, the cytotoxicity call in the assay with HSkMC and with HepG2 was “inactive” throughout. Also, in the assay with S. aureus RN4220, the growth inhibition call is “inactive”.
As for `O=C(NC1CCN(CCCCC2(C(=O)NCC(F)(F)F)c3ccccc3-c3ccccc32)CC1)c1ccccc1-c1ccc(C(F)(F)F)cc1`, the cytotoxicity call in the assay with HSkMC and with HepG2 was “active” each time. Further, the growth inhibition call with S. aureus RN4220 is “active”.
Take `Cc1noc(C)c1S(=O)(=O)Nc1ccc2c(c1)C(=O)N([C@@H](C)CO)C[C@H](C)[C@H](CN(C)S(=O)(=O)c1c(C)noc1C)O2`: the cytotoxicity call with HSkMC and in the assay on HepG2 was “inactive” in each case. For the same compound, in the assay with S. aureus RN4220, the growth inhibition call was “inactive”.
Consider `O=C(Nc1cccnc1)c1nc2ncccn2n1`, for which the cytotoxicity call with HSkMC and with HepG2 was “inactive” throughout. Besides, the growth inhibition call with S. aureus RN4220 is “inactive”.
